# Laboratory results published in article PMC4336329 (PLoS ONE, 2015).
# In all, about 310,000 compounds went through this assay and about 14,000 (4.5%) showed an effect of 50% or more. Effects have a minus sign here. This is one part of the list.
# Target: human ether-à-go-go-related gene (hERG) potassium channel (human, UniProt Q12809)
# Assay: primary screen, population patch clamp on CHO cells stably expressing hERG
# 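Also: peak tail current of the secondary pulse compared with the same well before compound.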
# Sequence of human ether-à-go-go-related gene (hERG) potassium channel (Q12809 whole entry, looked up): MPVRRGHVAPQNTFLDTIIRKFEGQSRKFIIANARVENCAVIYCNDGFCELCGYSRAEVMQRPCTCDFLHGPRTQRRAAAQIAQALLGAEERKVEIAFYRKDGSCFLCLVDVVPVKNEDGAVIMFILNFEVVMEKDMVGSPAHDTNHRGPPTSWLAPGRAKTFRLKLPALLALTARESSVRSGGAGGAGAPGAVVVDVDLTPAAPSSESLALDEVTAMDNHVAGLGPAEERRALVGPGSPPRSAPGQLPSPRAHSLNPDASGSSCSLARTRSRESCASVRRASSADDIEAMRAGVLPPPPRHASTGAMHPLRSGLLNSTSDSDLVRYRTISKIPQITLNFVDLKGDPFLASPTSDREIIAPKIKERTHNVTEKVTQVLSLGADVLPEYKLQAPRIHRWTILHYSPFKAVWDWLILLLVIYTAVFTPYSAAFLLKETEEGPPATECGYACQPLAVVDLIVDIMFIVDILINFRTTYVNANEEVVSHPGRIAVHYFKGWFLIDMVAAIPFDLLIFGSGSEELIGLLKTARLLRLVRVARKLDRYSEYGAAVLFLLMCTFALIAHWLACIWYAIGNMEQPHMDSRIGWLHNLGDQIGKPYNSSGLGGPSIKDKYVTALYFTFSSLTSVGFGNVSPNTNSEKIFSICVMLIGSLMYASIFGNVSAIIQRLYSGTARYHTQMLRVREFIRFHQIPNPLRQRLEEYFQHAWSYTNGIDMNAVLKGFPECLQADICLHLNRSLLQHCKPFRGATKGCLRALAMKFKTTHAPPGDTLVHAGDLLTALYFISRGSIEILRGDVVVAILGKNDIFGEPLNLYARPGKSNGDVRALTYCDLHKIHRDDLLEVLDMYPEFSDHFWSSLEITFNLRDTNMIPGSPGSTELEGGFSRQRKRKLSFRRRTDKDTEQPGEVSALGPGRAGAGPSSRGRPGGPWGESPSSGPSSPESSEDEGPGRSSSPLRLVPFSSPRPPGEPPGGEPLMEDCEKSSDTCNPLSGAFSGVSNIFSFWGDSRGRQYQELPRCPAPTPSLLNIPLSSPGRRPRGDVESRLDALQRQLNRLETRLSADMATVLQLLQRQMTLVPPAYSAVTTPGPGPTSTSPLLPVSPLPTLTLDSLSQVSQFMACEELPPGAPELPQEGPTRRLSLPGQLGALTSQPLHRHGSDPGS
row,Compound,"hERG current change (%, negative = inhibition) at 10uM [%]"
1,CCOC(=O)C1=C(C)NC(=S)N(C(C)=O)C1c1ccc(OC)c(OC)c1 (stereo not shown),10.6
2,COc1ccc(NC(=O)CN2CCN(S(=O)(=O)c3ccc(C(C)C)cc3)CC2)cc1OC,-66.5
3,Cc1cc2cc(CNC(=O)Nc3cccc(Cl)c3)ccc2n1C,19.4
4,COc1ccc(C(=O)N/C(=C\c2ccco2)C(=O)NCCCn2ccnc2)cc1,-19.7
5,NC(=O)NN=C1C2CCCC1C(c1ccccc1)NC2c1ccccc1 (stereo not shown),-7.17
6,Cc1cccc(CSC2=NCCN2C(=O)c2ccc(S(=O)(=O)N(C)C)cc2)c1,7.62
7,Cc1nc(C/C(=N\Nc2ccccc2)c2ccc(O)cc2O)cs1,-3.9
8,CCN(CC)CCP(=O)(c1ccccc1)c1ccccc1,-15.2
9,CC(C)(C)CN1CCNC(=O)C1CC(=O)NCCc1cnn(-c2ccccc2)c1 (stereo not shown),-0.753
10,Cc1ccc(/C=C(\C#N)c2nn(-c3ccccc3)c(N)c2C#N)cc1,-21.1
11,COc1cccc(CN(C)C(=O)[C@@H](NC(=O)c2ccc(C)cc2)C(C)C)c1,-18.4
12,CN(C(=O)CSc1nnc(-c2ccncc2)n1-c1ccccc1)C1CCS(=O)(=O)C1 (stereo not shown),7.61
13,O=C(CN1CCN(CCC(=O)Nc2ccccc2F)CC1)Nc1ccc(Cl)cc1,-76.8
14,Cc1cc(NC(=O)CCC(=O)N(CC(=O)NC2CCCC2)Cc2ccc3c(c2)OCO3)no1,6.12
15,Cc1c(C(=O)N/N=C/c2cccc(O)c2)nnn1-c1nonc1N,4.88
16,O=C(CSc1nnc(-c2ccccc2O)o1)Oc1ccc(Br)cc1,5.91
17,Fc1cccc(Cl)c1CSc1nnc(CNc2ccccc2)o1,-21.5
18,CCOC(=O)C(C)Sc1nc2c(c(-c3cccs3)c1C#N)CCC2 (stereo not shown),-8.45
19,COc1ccc(OC)c(CNC(=O)C(C)n2nc(C)c3c(C)n(-c4ccccc4)nc3c2=O)c1 (stereo not shown),-7.41
20,COc1ccc(CNC(=O)Cc2csc(NC(=O)Nc3ccccc3OC)n2)cc1,-2.11
21,CCC(C)(C)NC(=O)C(c1ccc(F)cc1)N(Cc1ccco1)C(=O)c1snc(C(N)=O)c1N (stereo not shown),-7.32
22,CCCCn1c(N)c(N(CC)C(=O)c2ccco2)c(=O)[nH]c1=O,14.7

row,Compound,"hERG current change (%, negative = inhibition) at 10uM [%]"
1,CC(OC(=O)CN1C(=O)c2ccccc2C1=O)C(=O)NC1CCCCC1 (stereo not shown),8.5
2,O=C(CN(Cc1ccc(Cl)cc1)C(=O)CNS(=O)(=O)c1ccc(F)cc1)NCC1CCCO1 (stereo not shown),-15.2
3,CCOC(=O)c1ccc(NC(=O)C2CC2)cc1,-18.4
4,O=C1c2ccccc2C(=O)N1CCc1csc(-c2cccc(Cl)c2)n1,-16.5
5,COc1ccc(Cc2noc(CN(C)Cc3cccc(-n4cccn4)c3)n2)cc1OC,-13.5
6,CCC(C(=O)NCCCN1CCN(C)CC1)n1nc(C)n2c(cc3occc32)c1=O (stereo not shown),17.1
7,Cn1c(=Nc2ccccc2)sc2ccccc21,-13.4
8,COc1ccc(-n2nnnc2SCC(=O)Nc2nnc(C)s2)cc1,0.313
9,Cc1c(C(=O)OCC(=O)NCCc2ccc(S(N)(=O)=O)cc2)oc2ccccc12,19.4
10,CC(=O)c1cc(OC(=O)c2ccncc2)ccc1OC(=O)c1ccncc1,3.9
11,Cc1ccc(/C=N/n2c(-c3ccc(Cl)cc3)n[nH]c2=S)s1,8.02
12,COc1ccc(C(=O)CSc2nnc(-c3ccccn3)n2Cc2ccco2)cc1,-20.2
13,COc1ccc(CNC(=O)C2CCN(S(=O)(=O)c3cc(OC)ccc3OC)CC2)cc1,-11
14,O=C(CSc1nnnn1C1CCCC1)Nc1ccc2c(c1)OCCO2,6.01
15,CC(/C=N/Nc1ccc2nncn2n1)=C\c1ccccc1,-51.8
16,O=C(Nc1ccccc1Cl)C1CCCN(S(=O)(=O)c2ccc(-n3cnnn3)cc2)C1 (stereo not shown),0.0853
17,O=C(Nc1ccncc1)C1CCN(S(=O)(=O)c2ccc(Cl)c(C(F)(F)F)c2)CC1,-69.9
18,CC(C)(C)N1C(=O)c2ccccc2NC(=O)N1Cc1ccc(Br)cc1,5.07
19,CC(C)c1nc(SCC(=O)Nc2ccc([N+](=O)[O-])cc2Br)n[nH]1,-30.3
20,O=[N+]([O-])c1ccc(Sc2nc3ccccc3o2)c([N+](=O)[O-])c1,20.1
21,O=C(CN1C(=O)NC2(CCc3ccccc32)C1=O)c1ccc(Cl)cc1 (stereo not shown),-17
22,CN1CCN(C2=C(Cl)C(=O)N(c3cccc(Cl)c3)C2=O)CC1,4.54

row,Compound,"hERG current change (%, negative = inhibition) at 10uM [%]"
1,CC(C)(C)C(=O)Nc1nc(-c2ccccc2)ns1,-8.35
2,COC(C/C=C\[C@@H](O)[C@H](C)OCc1ccccc1)OC,25.7
3,COc1ccc(OC)c(NC(=O)C(CC(=O)O)Cc2ccc(Cl)cc2)c1 (stereo not shown),6.05
4,COC(=O)Cc1[nH]c(=S)[nH]c1C(=O)OC,6.22
5,c1ccc(N2CCN(c3cnc4ccccc4n3)CC2)cc1,-6.77
6,O=c1[nH]c(=O)n(CCc2ccccc2)c(O)c1C=NCCCn1ccnc1,-2.66
7,COC(=O)c1cc(C(=O)NC(C)(C)CC(C)(C)C)cc([N+](=O)[O-])c1,-19.7
8,COc1ccc(OC)c(NC(=O)NNC(=O)c2cc3occc3[nH]2)c1,14.3
9,CCOc1ccccc1N1C(=O)c2ccc(C(=O)Nc3cccnc3)cc2C1=O,-30.2
10,CCCCn1c(N)c(N(CC)C(=O)c2ccc(C)cc2)c(=O)[nH]c1=O,28.3
11,CN(C)c1ccc(C(C(=O)NCc2ccccc2)N(Cc2ccco2)C(=O)c2snc(C(N)=O)c2N)cc1 (stereo not shown),-9.36
12,COc1cc(NC(=O)CSc2nc(C)c(C)c(C)n2)cc(OC)c1,-3.53
13,COC(=O)c1ccc(COC(=O)CCC(=O)c2cccs2)cc1,12.5
14,C=CCn1c(=O)c(C=Nc2c(OC)cccc2[N+](=O)[O-])c(O)n(CCCC)c1=O,-23.8
15,COc1ccc(C(CNC(=O)c2oc3ccc(Br)cc3c2C)N2CCCCC2)cc1 (stereo not shown),-13.3
16,O=C1/C(=C/c2ccccc2[N+](=O)[O-])COc2ccccc21,14
17,Cn1cc(/C=C(\NC(=O)c2ccccc2Cl)C(=O)N2CCOCC2)c2ccccc21,14.3
18,CCOC(=O)c1c(NC(=O)CSc2nnc(-c3cccnc3)o2)sc2c1CCC2,-11.1
19,Cc1ccccc1Nc1nc(CSc2nnnn2-c2ccccc2)cs1,-2.74
20,CSc1ccc(NC(=O)N2CC(C)OC(C)C2)cc1 (stereo not shown),4.42
21,CCOC(=O)C1CCN(C(=O)Nc2cccc(Cl)c2)CC1,8.82
22,COc1cc(C(=S)NCc2ccccc2)cc(Br)c1O,2.7

row,Compound,"hERG current change (%, negative = inhibition) at 10uM [%]"
1,O=C(c1ccccc1Cl)N1CCc2ccccc2C1,-8.59
2,Cc1ccc(C)n1-c1cc([N+](=O)[O-])ccc1-n1ccnc1,-28.7
3,C[C@]12CC[C@@H]3c4ccc(OS(=O)(=O)[O-])cc4CC[C@H]3[C@@H]1CCC2=O.[K+],21.8
4,CCN1C(=O)/C(=C2/Sc3ccccc3N2CC)SC1=S,9.35
5,COc1ccc(C(=O)Oc2ccc(C(=S)N3CCCC3)cc2)cc1OC,16.1
6,COc1ccc(C(O)c2nc3ccccc3n2C)cc1OC (stereo not shown),11.9
7,COc1ccc(CN2CCN(CCC(C)C)C(CCO)C2)cc1Cn1cncn1 (stereo not shown),1.78
8,CCOc1ccccc1CN1CCNC(=O)C1CC(=O)NC1CCCCCC1 (stereo not shown),-4.82
9,COc1ccc(C2C(C(=O)c3ccco3)=C(O)C(=O)N2CCc2ccccc2)cc1OC (stereo not shown),-3.32
10,CSc1nnnn1-c1ccc(C(=O)O)cc1,20.3
11,CCN1CCN(c2cc(=O)n(C3CCCCC3)c(=O)[nH]2)CC1,5.59
12,CCn1cc(S(=O)(=O)c2ccc(Cl)cc2)c(=O)c2cc(OC)ccc21,-18.6
13,Cc1ccc2c(COC(=O)c3ccccc3OC(F)F)cc(=O)oc2c1,27.8
14,O=C(CN1CCOC1=O)N1CCCC(Nc2ccc(F)c(F)c2)C1 (stereo not shown),2.91
15,C/C=C/C(=O)OCC(=O)Nc1ccccc1Br,23.6
16,COCCCNC(=O)c1ccc2c3c(onc13)-c1ccccc1C2=O,-3.25
17,NC(=O)c1ccccc1NC(=O)CC12CC3CC(CC(C3)C1)C2,-0.125
18,O=C(NCC(c1cccnc1)N1CCN(c2ccccc2)CC1)c1ccco1 (stereo not shown),10.6
19,O=c1ccc2cc([N+](=O)[O-])c(CCO)cc2o1,11.3
20,CN1CCN(C(=O)c2ccc3ccccc3c2)CC1,-17.5
21,Cc1ccc(C2=NN(CCC#N)C(=O)CO2)cc1,8.78
22,COc1ccccc1CNC(=O)CCCC(=O)n1nc(C)c2ccccc21,-14.1
